Some of the results follow. The full chains were built here from the parent and the listed change. Inactive controls read about 0.05.
B1: TEV protease; numbered along this chain (parent)
chain: MGESLFKGPRDYNPISSSICHLTNESDGHTTSLYGIGFGPFIITNKHLFRRNNGTLVVQSLHGVFKVKDTTTLQQHLVDGRDMIIIRMPKDFPPFPQKLKFREPQREERICLVTTNFQTKSMSSMVSDTSCTFPSGDGIFWKHWIQTKDGQCGSPLVSTRDGFIVGIHSASNFTNTNNYFTSVPKNFMELLTNQEAQQWVSGWRLNADSVLWGGHKVFMVKPEEPFQPVKEATQL

Variants of: B1
Test: raw area under fraction-flipped curve 0-4 h after induction (AUC4h, not background-subtracted), DNA-recorder readout of cleavage of the substrate (dimensionless); higher = more cleavage of the substrate by the protease variant
Settings: temperature: 34 °C; time window: 0-4 h after rhamnose induction
Procedure: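 In vivo DNA recorder in E. coli TOP10(DE3) ΔrhaA at 34 °C. Each TEVp single-site mutant (parent TEVp 0) is paired with a single-site variant of the 7-mer TEVs (canonical ENLYFQ|S). The substrate sits between flexible linkers in a Bxb1-sfGFP-TEVs-SsrA fusion, so cleavage stabilises Bxb1 and speeds flipping of a recombination array, read by NGS. The value is the raw area under the fraction-flipped curve over 0-4 h after rhamnose induction (AUC4h), with ≥20 reads per time point. It is not background-subtracted; inactive controls average about 0.047.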
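Further: Bxb1 expression induced with 0.2% (w/v) L-rhamnose at OD600 near 0.5, cultures sampled hourly, flipped fraction per protease–substrate barcode pair counted by paired-end Illumina sequencing.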

Variant	area with substrate EALYFQS	area with substrate ECLYFQS	area with substrate EGLYFQS	area with substrate EHLYFQS	area with substrate EILYFQS	area with substrate EKLYFQS	area with substrate ELLYFQS	area with substrate EMLYFQS	area with substrate EPLYFQS	area with substrate EQLYFQS	area with substrate ESLYFQS	area with substrate EVLYFQS	area with substrate EWLYFQS	area with substrate EYLYFQS	area with substrate ERLYFQS	area with substrate EDLYFQS	area with substrate ETLYFQS	area with substrate EFLYFQS	area with substrate EELYFQS
I84W	0.0464	0.0596	0.0674	0.0535	0.0413	0.0605	0.0694	0.0437	0.0569	0.0438	0.0523	0.0539	0.0591	0.0586	–	–	–	–	–
I19H	0.0832	0.0892	–	0.0714	0.0816	0.0856	0.0814	0.0941	0.097	–	0.107	0.0785	0.0847	–	0.0777	–	–	–	–
P14W	0.119	0.106	0.0943	–	0.0985	0.113	0.117	0.12	0.141	0.118	0.11	0.0892	0.099	0.0929	0.104	0.118	0.188	–	–
I145F	0.137	0.094	–	–	–	–	0.0845	–	0.125	–	0.107	0.07	–	–	0.0994	–	–	–	–
S127D	0.095	0.0999	–	0.0946	0.0923	0.104	0.0732	0.101	–	0.0898	0.113	0.0641	–	–	0.0676	–	–	0.0975	–
N116D	0.134	0.0761	0.0923	–	0.1	0.113	0.106	0.105	0.11	0.123	0.0744	0.123	–	0.0967	0.115	0.113	–	–	0.124
I15S	0.0823	0.0734	0.0758	–	0.0759	0.0831	0.0846	–	0.0914	0.0805	0.0684	0.0889	0.0765	–	0.0717	0.0883	–	–	0.0996
S135A	0.0729	–	0.0618	0.0902	0.0999	0.157	0.0816	0.088	0.0873	–	0.0821	0.0825	–	–	0.0794	–	0.0608	–	0.088
R102A	0.0806	0.079	0.0624	–	0.0564	0.0781	–	0.0657	0.0786	0.0713	0.0629	–	0.0698	–	–	0.0745	–	–	0.0769
T44W	0.118	0.0468	0.039	0.0114	0.0438	0.0496	0.0357	–	0.0591	0.0421	0.0465	0.047	0.0429	0.0295	0.043	0.0513	0.0432	–	0.0458
H29A	0.114	0.12	0.101	0.0464	–	–	0.098	0.123	–	0.107	0.0867	0.0955	–	–	0.0978	–	0.118	0.111	0.111
E107W	–	0.0829	0.113	–	0.0936	0.09	–	–	0.14	–	0.122	0.0933	–	–	0.0966	0.125	0.112	0.123	–
T55G	–	0.104	–	–	0.0706	0.0784	0.106	0.112	0.102	–	0.0939	0.0783	–	0.0762	–	0.102	–	–	0.0708
H47L	–	0.0577	0.0505	0.0519	0.0437	0.0575	0.0578	–	0.112	0.0622	0.0586	0.0578	0.0514	0.0667	0.0543	0.0566	–	–	0.0543
T30W	–	0.131	0.0921	0.102	0.0918	0.125	0.0972	0.116	–	0.109	0.123	0.101	0.096	0.103	0.125	–	0.169	–	0.133
H29D	–	0.104	0.095	0.118	0.111	0.137	–	0.118	0.141	0.136	0.0977	0.116	0.0952	–	0.0899	–	–	–	0.134
D69W	–	0.0686	0.107	0.0897	–	0.0817	0.119	0.0825	0.0868	–	0.0772	–	–	–	–	0.0826	–	–	0.103
T233G	–	0.112	–	–	0.122	–	0.0947	0.113	0.0942	–	0.109	0.0876	0.131	–	0.0892	0.114	0.103	–	0.12
H62V	–	0.111	–	0.103	–	–	–	–	0.122	–	0.0901	–	–	–	0.0948	0.14	0.0973	0.0649	0.113
T233K	–	0.162	0.105	0.118	0.108	0.123	–	–	0.1	0.119	0.156	0.108	–	–	0.0476	–	0.126	0.104	–
L77N	–	0.0735	0.0601	–	0.0632	–	–	–	0.0618	0.0665	–	0.092	–	0.106	0.0692	0.0647	–	0.0674	0.0639
K142S	–	0.073	0.0941	–	0.0844	–	–	–	0.0936	0.114	0.092	0.0857	–	–	0.0934	0.114	0.0982	–	–
I139A	–	0.0796	0.105	0.162	0.101	–	0.114	–	0.108	0.131	0.0885	0.0586	–	0.0862	0.108	–	0.0986	0.113	0.127
T44K	–	0.0447	–	–	0.0406	0.051	0.0532	0.0447	0.0506	0.0476	0.0337	0.0433	–	0.05	0.0477	–	–	0.0449	–
Q197G	–	0.101	0.075	0.105	0.0794	0.0979	0.0886	0.0761	–	0.102	–	–	0.113	–	–	0.103	0.118	–	0.118
G166R	–	0.0531	0.0695	–	0.0263	–	0.0512	0.0322	–	0.0549	0.058	0.0472	0.0482	–	–	0.0544	0.0421	0.0453	0.05
C20F	–	0.0765	0.0625	0.0508	0.0677	0.0937	–	0.0602	0.0821	0.0688	0.0611	–	–	0.066	0.0683	0.072	–	–	0.0803
T147N	–	0.0651	0.0677	0.062	0.0719	0.0878	–	0.0462	–	0.0421	0.0675	–	0.0708	0.0669	0.0674	–	0.065	–	0.0686
